# The supplement of paper PMC4604168 (melanoma cell lines)
# Some of the results follow. Most values come without repeats; read them as rough.
# How the values were obtained:
# Assay in all cases: cell count relative to DMSO control; melanoma cells; higher = more viable cells
# Settings in all cases: library dose: standard library concentration; 72 h
# SkMel28 = tested on: SkMel28
# SkMel2 = tested on: SkMel2
# SkMel30 = tested on: SkMel30
# SkMel5 = tested on: SkMel5
# UACC257 = tested on: UACC257
# UACC62 = tested on: UACC62
# WM115 = tested on: WM115
# WM1716 = tested on: WM1716
# WM1745 = tested on: WM1745
# WM3526 = tested on: WM3526
# 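Also: cells treated in 1,536-well plates, then fixed and DAPI-stained, with nuclei counted from automated high-throughput microscope images.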
SMILES,cell count (SkMel28) [%],cell count (SkMel2) [%],cell count (SkMel30) [%],cell count (SkMel5) [%],cell count (UACC257) [%],cell count (UACC62) [%],cell count (WM115) [%],cell count (WM1716) [%],cell count (WM1745) [%],cell count (WM3526) [%]
"Cn1c(=O)n(-c2ccc(C(C)(C)C#N)cc2)c2c3cc(-c4cnc5ccccc5c4)ccc3ncc21 + CC(=O)c1c(C)c2cnc(Nc3ccc(N4CCNCC4)cn3)nc2n(C2CCCC2)c1=O [palbociclib] (first compound 0.02 µM, partner dose 0.2 µM)",41.2,57,77.8,61.7,96.6,61.9,62.1,46.4,64.7,53.8
"Cc1cn(-c2cc(NC(=O)c3ccc(C)c(Nc4nccc(-c5cccnc5)n4)c3)cc(C(F)(F)F)c2)cn1 [nilotinib] + COc1cc2c(Oc3ccc4[nH]c(C)cc4c3F)ncnc2cc1OCCCN1CCCC1 [cediranib] (first compound 1 µM, partner dose 2 µM)",157,98.1,119,66,103,63.3,77.9,104,76.4,89.8
"Cc1cn(-c2cc(NC(=O)c3ccc(C)c(Nc4nccc(-c5cccnc5)n4)c3)cc(C(F)(F)F)c2)cn1 [nilotinib] + NC(=O)Nc1cc(-c2cccc(F)c2)sc1C(=O)N[C@H]1CCCNC1 [AZD7762] (first compound 1 µM, partner dose 0.1 µM)",44.8,83,77.9,86.2,102,48.8,58.2,62.7,54.9,50.5
"COc1ccc(C2=N[C@@H](c3ccc(Cl)cc3)[C@@H](c3ccc(Cl)cc3)N2C(=O)N2CCNC(=O)C2)c(OC(C)C)c1 [Nutlin-3] + CCCS(=O)(=O)Nc1ccc(F)c(C(=O)c2c[nH]c3ncc(Cl)cc23)c1F [PLX4720] (first compound 0.5 µM, partner dose 0.4 µM)",41.4,106,84.8,60.1,80,58.6,84.5,58.7,82.7,70.8
"Cc1cn(-c2cc(NC(=O)c3ccc(C)c(Nc4nccc(-c5cccnc5)n4)c3)cc(C(F)(F)F)c2)cn1 [nilotinib] + Cc1ccc(NC(=O)c2cccc(N(C)C)c2)cc1NC(=O)c1ccc(O)cc1 [ZM336372] (first compound 1 µM, partner dose 10 µM)",74.4,113,107,89.6,105,97.9,88.4,103,70.2,106
"Cn1c(=O)n(-c2ccc(C(C)(C)C#N)cc2)c2c3cc(-c4cnc5ccccc5c4)ccc3ncc21 + O=C(O)[C@@H]1[O][Sb](=[O])([O][Sb]2(=[O])[O][C@H]([C@H](O)CO)[C@H](O)[C@H](C(=O)O)[O]2)[O][C@H]([C@H](O)CO)[C@@H]1O [stibogluconate] (first compound 0.02 µM, partner dose 10 µM)",53.6,67.2,68.1,69.1,85.1,63.8,67.6,84.9,85.1,71.3
"Cc1cc(Nc2cc(N3CCN(C)CC3)nc(/C=C/c3ccccc3)n2)n[nH]1 + NCC(=O)Nc1ccc(-n2nc(C(F)(F)F)cc2-c2ccc3c(ccc4ccccc43)c2)cc1 [OSU03012] (first compound 0.2 µM, partner dose 5 µM)",32.8,48.4,62,60.6,91.1,56.9,67.2,82.4,87.6,54.5
"Cc1cn(-c2cc(NC(=O)c3ccc(C)c(Nc4nccc(-c5cccnc5)n4)c3)cc(C(F)(F)F)c2)cn1 [nilotinib] + CN(NC(=O)CC(=O)NN(C)C(=S)c1ccccc1)C(=S)c1ccccc1 [STA4783] (first compound 1 µM, partner dose 0.03 µM)",39.4,53,81,41.6,123,44.6,25.5,65.4,21.2,72.3
"CC(C)C[C@H](NC(=O)[C@H](Cc1ccccc1)NC(=O)c1cnccn1)B(O)O [Bortezomib] + CNC(=O)c1cc(Oc2ccc(NC(=O)Nc3ccc(Cl)c(C(F)(F)F)c3)cc2)ccn1 [sorafenib] (first compound 0.005 µM, partner dose 2 µM)",27.4,59,36.6,35.8,79.5,76.6,24.7,15.1,23,29.3
"Cc1cn(-c2cc(NC(=O)c3ccc(C)c(Nc4nccc(-c5cccnc5)n4)c3)cc(C(F)(F)F)c2)cn1 [nilotinib] + Cc1cc(N2CCOCC2)cc2[nH]c(-c3c(NC[C@@H](O)c4cccc(Cl)c4)cc[nH]c3=O)nc12 [BMS536924] (first compound 1 µM, partner dose 1 µM)",62,75,73.7,52.7,130,89.8,82,111,45.1,62.6
"COc1ccc(C2=N[C@@H](c3ccc(Cl)cc3)[C@@H](c3ccc(Cl)cc3)N2C(=O)N2CCNC(=O)C2)c(OC(C)C)c1 [Nutlin-3] + CO[C@@H]1[C@H](N(C)C(=O)c2ccccc2)C[C@H]2O[C@]1(C)n1c3ccccc3c3c4c(c5c6ccccc6n2c5c31)C(=O)NC4 [Midostaurin] (first compound 0.5 µM, partner dose 0.4 µM)",45.1,56.1,71.7,50.7,62.7,53.6,44.6,40.4,30.7,68.8
"Cc1cc(Nc2cc(N3CCN(C)CC3)nc(/C=C/c3ccccc3)n2)n[nH]1 + Cn1nnc2c(C(N)=O)ncn2c1=O [temozolomide] (first compound 0.2 µM, partner dose 10 µM)",43.6,116,54,87.8,108,76.3,60.7,57.3,74.9,74.3
"CC(C)C[C@H](NC(=O)[C@H](Cc1ccccc1)NC(=O)c1cnccn1)B(O)O [Bortezomib] + Nc1nc(F)nc2c1ncn2[C@@H]1O[C@H](CO)[C@@H](O)[C@@H]1O [fludarabine] (first compound 0.005 µM, partner dose 1 µM)",5.15,1.54,19,38.9,39.4,42,32.5,15.3,20.6,20.5
"Cc1cn(-c2cc(NC(=O)c3ccc(C)c(Nc4nccc(-c5cccnc5)n4)c3)cc(C(F)(F)F)c2)cn1 [nilotinib] + CCN(CC)CCNC(=O)c1c(C)[nH]c(/C=C2\C(=O)Nc3ccc(F)cc32)c1C [sunitinib] (first compound 1 µM, partner dose 2 µM)",63.3,84.6,85.9,60.1,104,54.7,83.6,128,60.4,55.4
"COc1ccc(C2=N[C@@H](c3ccc(Cl)cc3)[C@@H](c3ccc(Cl)cc3)N2C(=O)N2CCNC(=O)C2)c(OC(C)C)c1 [Nutlin-3] + C#Cc1cccc(Nc2ncnc3cc(OCCOC)c(OCCOC)cc23)c1 [erlotinib] (first compound 0.5 µM, partner dose 4 µM)",40.9,79.8,77.9,65.5,90.2,35.1,79.2,72.9,52,65.5
"Cc1cc(Nc2cc(N3CCN(C)CC3)nc(/C=C/c3ccccc3)n2)n[nH]1 + Cc1ccc(NC(=O)c2cccc(N(C)C)c2)cc1NC(=O)c1ccc(O)cc1 [ZM336372] (first compound 0.2 µM, partner dose 10 µM)",68.8,65.7,94.3,58.4,87,69.8,60,88.2,76.3,69.9
"CC(C)C[C@H](NC(=O)[C@H](Cc1ccccc1)NC(=O)c1cnccn1)B(O)O [Bortezomib] + CC(C)(C)c1cnc(CSc2cnc(NC(=O)C3CCNCC3)s2)o1 [SNS-032] (first compound 0.005 µM, partner dose 0.05 µM)",35.9,30.3,29.6,27.7,81.3,61,24.9,22.1,16.7,32.9
"CC(C)C[C@H](NC(=O)[C@H](Cc1ccccc1)NC(=O)c1cnccn1)B(O)O [Bortezomib] + NCC(=O)Nc1ccc(-n2nc(C(F)(F)F)cc2-c2ccc3c(ccc4ccccc43)c2)cc1 [OSU03012] (first compound 0.005 µM, partner dose 5 µM)",14.9,13.5,23,30.4,63.4,52.2,17.8,23.2,17.7,17.8
"Cc1cn(-c2cc(NC(=O)c3ccc(C)c(Nc4nccc(-c5cccnc5)n4)c3)cc(C(F)(F)F)c2)cn1 [nilotinib] + CC(=O)c1c(C)c2cnc(Nc3ccc(N4CCNCC4)cn3)nc2n(C2CCCC2)c1=O [palbociclib] (first compound 1 µM, partner dose 0.2 µM)",55.2,73.5,62.9,60.2,78.6,58.4,75,59,66.4,51.5
"Cc1cc(Nc2cc(N3CCN(C)CC3)nc(/C=C/c3ccccc3)n2)n[nH]1 + C[C@@H]1CCN(C(=O)CC#N)C[C@@H]1N(C)c1ncnc2[nH]ccc12 [CP690550] (first compound 0.2 µM, partner dose 5 µM)",95.3,80,88.9,71.3,89.7,73.6,61.7,67.3,70.2,73.1
"CC(C)C[C@H](NC(=O)[C@H](Cc1ccccc1)NC(=O)c1cnccn1)B(O)O [Bortezomib] + Cn1c(Nc2ccc(C(F)(F)F)cc2)nc2cc(Oc3ccnc(-c4ncc(C(F)(F)F)[nH]4)c3)ccc21 [CHIR265] (first compound 0.005 µM, partner dose 0.4 µM)",25.5,39.3,23.1,25.7,67.5,43,26.5,16.5,22.2,21.7
